What all share (assay): pull-down; GST-Dyn1 PRR constructs on GSH-sepharose beads incubated with rat brain synaptosomal (P2) lysate; 20 mM Tris pH 7.4, 150 mM NaCl, 1% Triton X-100, 1 mM EDTA, 1 mM EGTA; 4 °C, 1 h; bound proteins by Western blot with antibodies to Endophilin A and Amphiphysin 1; only the target purified
On the technique in general: A western blot detects proteins with antibodies after separation by electrophoresis.

Amino acid sequences for entries named in this document (tags omitted).
UniProt O35179: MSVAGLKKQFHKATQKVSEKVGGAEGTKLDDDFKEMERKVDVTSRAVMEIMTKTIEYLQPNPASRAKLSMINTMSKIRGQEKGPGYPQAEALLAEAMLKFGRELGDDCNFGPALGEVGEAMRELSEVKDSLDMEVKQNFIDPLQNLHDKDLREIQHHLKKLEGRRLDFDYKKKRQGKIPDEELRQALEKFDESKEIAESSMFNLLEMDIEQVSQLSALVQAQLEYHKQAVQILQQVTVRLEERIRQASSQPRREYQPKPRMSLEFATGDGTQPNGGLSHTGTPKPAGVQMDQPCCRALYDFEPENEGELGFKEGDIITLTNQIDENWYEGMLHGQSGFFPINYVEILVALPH

In assay [1] the target is T1, GST-Dyn1xA-PRR R846A (rat) (UniProt P21575).
T1 sequence: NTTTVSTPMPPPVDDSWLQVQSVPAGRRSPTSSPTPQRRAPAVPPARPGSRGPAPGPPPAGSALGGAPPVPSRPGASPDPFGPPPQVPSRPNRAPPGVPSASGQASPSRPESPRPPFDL

Assay [2] has as its target T2, GST-Dyn1xA-PRR P813/816A (rat) (UniProt P21575).
T2 sequence: T1 sequence with P68A, P71A, A101R

The target of assay [3] is T3, GST-Dyn1xA 806-864 P816/819A (rat) (UniProt P21575).
T3 sequence: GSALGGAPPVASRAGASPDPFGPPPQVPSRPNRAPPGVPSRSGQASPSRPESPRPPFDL

Assay [4] addresses T4, GST-Dyn1xA-PRR P816/819A (rat) (UniProt P21575).
T4 sequence: T1 sequence with P71A, P74A, A101R

The target in assay [5] is T5, GST-Dyn1xA 806-864 R838A (rat) (UniProt P21575).
T5 sequence: T3 sequence with A11P, A14P, R33A

The target in assay [6] is T6, GST-Dyn1xA-PRR P841/844A (rat) (UniProt P21575).
T6 sequence: T1 sequence with P96A, P99A, A101R

Assay [7] concerns the target T7, GST-Dyn1xA-PRR P844A (rat) (UniProt P21575).
T7 sequence: T1 sequence with P99A, A101R

Another assay has as its target T8, GST-Dyn1xA 794-864 (rat) (UniProt P21575).
T8 sequence: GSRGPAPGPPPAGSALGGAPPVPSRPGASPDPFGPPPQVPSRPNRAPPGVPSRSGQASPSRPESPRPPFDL

Assay [8] has as its target T9, GST-Dyn1xA 806-864 P813/816A (rat) (UniProt P21575).
T9 sequence: T3 sequence with P8A, A14P

Assay [9] has as its target T10, GST-Dyn1xA-PRR S774/778E (rat) (UniProt P21575).
T10 sequence: T1 sequence with S29E, S33E, A101R

Assay [10] deals with T11, GST-Dyn1xA-PRR S851/857E (rat) (UniProt P21575).
T11 sequence: T1 sequence with A101R, S106E, S112E

For assay [11], the target named is T12, GST-Dyn1xA-PRR R838A (rat) (UniProt P21575).
T12 sequence: T1 sequence with R93A, A101R

For assay [12], the target named is T13, GST-Dyn1xA 806-864 P841/844A (rat) (UniProt P21575).
T13 sequence: T3 sequence with A11P, A14P, P36A, P39A

Another assay concerns the target T14, GST-Dyn1xA 806-864 (rat) (UniProt P21575).
T14 sequence: T3 sequence with A11P, A14P

The target in a further assay is T15, GST-Dyn1xA 746-798 (rat) (UniProt P21575).
T15 sequence: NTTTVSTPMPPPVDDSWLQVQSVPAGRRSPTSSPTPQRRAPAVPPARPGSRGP

Assay [13] deals with GST-Dyn1xA-PRR (full-length proline-rich region of Dynamin 1 splice variant xA, 746-864) (rat) (UniProt P21575).
For assay [14], the target named is T16, GST-Dyn1xA 806-864 P833/836A (rat) (UniProt P21575).
T16 sequence: T3 sequence with A11P, A14P, P28A, P31A

Positions count from the first letter of the chain named. No constants are given. Whether binding was seen depends on the method and setting. Binding seen in cells or lysates may run through a third protein. Some binding calls cover weakened binding; strength is not graded here. For some assays here: Where a sequence is shown, tags or fusion partners need not be part of it.

Regarding “Endophilin A1 (endogenous, rat brain synaptosomes) (from UniProt O35179 1-352)”, the binding result is recorded as “binds” in [1]; “binds” in assay [2]; “binds” in assay [3]; “binds” in assay [4]; “binds weakly” in assay [5]; “binds” in assay [6]. The binding result (in assay [7]; with GST-Dyn1xA 794-864 (rat); in [8]; in [9]; in [10]; in [11]) was “binds” throughout. The binding result in assay [12] was “binds”; in the assay with GST-Dyn1xA 806-864 (rat), “binds”; in the assay with GST-Dyn1xA 746-798 (rat) it was “binds”; in assay [13] it was “binds”; in assay [14], “no binding”.

The values above are taken from publication doi:10.1101/2023.09.21.558797.
